In PubChem BioAssay (Tox21):
Where “and” joins values, the source holds several entries; their conditions need not be identical. Identical values can stand only once. The inconclusive results got no clear call from the source; some entries with a clear call stand among them for comparison. Where the call is inconclusive, the potency comes from a doubtful curve fit. The source holds several records for some structures; these can differ, active in one and inactive in another. Calls of active or inactive are those of the source. Unless noted, calls come from the whole dose curve.

Experiments:
[1] = target: Progesterone receptor (Homo sapiens) (UniProt P06401); assay: qHTS assay to identify small molecule agonists of the progesterone receptor (PR) signaling pathway (AID 1346784); conditions: PR-UAS-bla HEK293T, beta-lactamase FRET ratio, 16 h; note: nearly all actives have a fitted effect of over 30% in size; for activation: % is set by controls: 0 for no effect and ±100 for the full control effect
Method in brief: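 Cells (PR-UAS-bla HEK 293T, GripTite) were plated in assay medium containing 2% charcoal-stripped FBS and incubated 6 hr. Test compounds in DMSO were added for 16 hr at 37C. FRET substrate was then loaded for 2 hr at room temperature before fluorescence reading.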

[2] = target: Progesterone receptor (Homo sapiens) (UniProt P06401); assay: qHTS assay to identify small molecule antagonists of the progesterone receptor (PR) signaling pathway (AID 1346795; active = well fitted inhibition curve with a large enough effect in the signal ratio in the repeat runs, not every such curve was filed as active; inconclusive = weak or mixed curves; the % refers to the signal ratio; for activity change, negative = inhibition: % is set by controls: 0 for no effect and ±100 for the full control effect); conditions: PR-UAS-bla HEK293T, beta-lactamase FRET ratio, 16 h
Method in brief: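 Antagonist mode: compounds tested against 1 nM (final) promegestone stimulation in HEK293T cells expressing PR-UAS-bla reporter, 16 hr at 37C, 5% CO2; beta-lactamase activity detected via B/G FRET substrate after 2 hr at room temperature.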

[3] = qHTS assay to identify small molecule antagonists of the progesterone receptor (PR) signaling pathway - cell viability counter screen (AID 1346798; active = well fitted curve in the direction sought with a large enough effect in the repeat runs; inconclusive = weak or mixed curves; inactive = no such curve, though single readings can be large; an effect the other way counts as inactive or inconclusive; note: nearly all actives have a fitted effect of over 50% in size)
Method in brief: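 Counter screen for cytotoxicity: viability of PR-UAS-bla HEK293T cells was measured with CellTiter-Glo luminescence following 16 hr compound exposure in the presence of R5020.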

[4] = qHTS assay to identify small molecule agonists of the progesterone receptor (PR) signaling pathway - cell viability counter screen (AID 1346799); note: nearly all actives have a fitted effect of over 45% in size
Method in brief: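 Cells (PR-UAS-bla HEK293T) are plated at 3,000/well in 2% charcoal-stripped FBS medium, rested 6 hr, dosed and incubated 16 hr at 37C. CellTiter-Glo is then added and luminescence measured after 30 min at room temperature.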

[5] = qHTS assay to identify small molecule antagonists of the TGF-beta/Smad signaling pathway - cell viability counter screen (AID 1346824; active = well fitted curve in the direction sought with a large enough effect in the repeat runs; inconclusive = weak or mixed curves; inactive = no such curve, though single readings can be large; an effect the other way counts as inactive or inconclusive; note: nearly all actives have a fitted effect of over 50% in size)
Method in brief: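 SBE-bla HEK 293T cells were plated overnight at 37 C, then given compounds in DMSO plus TGF-beta1 (added as 0.25 ng/mL solution) for 5 hr. After the bla read, CellTiter-Glo was added to the same wells and luminescence read after 30 min at room temperature.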

[6] = qHTS assay to identify small molecule agonists of the TGF-beta/Smad signaling pathway - cell viability counter screen (AID 1346829; active = well fitted curve in the direction sought with a large enough effect in the repeat runs; inconclusive = weak or mixed curves; inactive = no such curve, though single readings can be large; an effect the other way counts as inactive or inconclusive; note: nearly all actives have a fitted effect of over 45% in size)
Method in brief: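 After overnight seating at 37 C and 5% CO2, reporter cells got compounds for 5 hr and FRET substrate for 2 hr; cell viability then came from CellTiter-Glo luminescence.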

[7] = qHTS assay to identify small molecule agonists of the TGF-beta/Smad signaling pathway (AID 1346859; active = well fitted activation curve with a large enough effect in the signal ratio in the repeat runs, not every such curve was filed as active; inconclusive = weak or mixed curves; the % refers to the signal ratio); conditions: SBE-bla HEK293T, TGF-beta/Smad beta-lactamase reporter, 5 h; activation: at 76.8 µM (top of the series)
Method in brief: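 Reporter line: HEK 293T with stably integrated SBE-controlled beta-lactamase. Compound exposure lasts 5 hr at 37 C and 5% CO2; substrate loading follows for 2 hr at room temperature, with emission read at 460 and 530 nm.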

[8] = target: Thyrotropin-releasing hormone receptor (Homo sapiens) (UniProt P34981); assay: qHTS assay to identify small molecule antagonists of the thyrotropin-releasing hormone receptor (TRHR) signaling pathway (AID 1346877; active = well fitted inhibition curve with a large enough effect in the repeat runs, not every such curve was filed as active; inconclusive = weak or mixed curves)
Method in brief: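 Kinetic fluorescence (3 min, 1 s resolution) following stimulation with TRH at 1 nM final; HEK293 cells bearing human TRHR; 5 min compound preincubation at RT; concentration-response over 15 points, triplicates.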

[9] = Human pregnane X receptor (PXR) small molecule agonists, qHTS cell viability counter screen (AID 1346977; active = well fitted curve in the direction sought with a large enough effect in the repeat runs; inconclusive = weak or mixed curves; inactive = no such curve, though single readings can be large; an effect the other way counts as inactive or inconclusive; note: nearly all actives have a fitted effect of over 50% in size)
Method in brief: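 Cytotoxicity counter screen run in the same wells as the PXR luciferase assay, using PXR-Luc HepG2 cells in charcoal-stripped serum medium. Viability: CellTiter-Fluor fluorescence after 24hr compound treatment.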

[10] = qHTS assay to identify small molecule antagonists of the TGF-beta/Smad signaling pathway (AID 1346924; active = well fitted inhibition curve with a large enough effect in the signal ratio in the repeat runs, not every such curve was filed as active; inconclusive = weak or mixed curves; the % refers to the signal ratio); conditions: SBE-bla HEK293T, TGF-beta/Smad reporter, beta-lactamase ratio
Method in brief: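 Read-out was FRET-substrate fluorescence (405 nm excitation; 460 and 530 nm emission) after 2 h at room temperature. Before that, cells carrying a Smad-binding-element beta-lactamase reporter in HEK 293T had been stimulated 5 h at 37 C with TGF-beta1 (0.25 ng/mL addition solution) in the presence of test compound.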

[11] = activation: at 92.4 µM (top of the series) unless noted
[12] = activity change, negative = inhibition: at 92.4 µM (top of the series) unless noted
[13] = activity, negative = inhibition: at 76.8 µM (top of the series) unless noted
Potency is the fitted concentration of half-maximal effect; tags give direction and shape of the fitted curve or compound fluorescence and quenching.

Chain of UniProt P06401 (P06401 whole entry, looked up): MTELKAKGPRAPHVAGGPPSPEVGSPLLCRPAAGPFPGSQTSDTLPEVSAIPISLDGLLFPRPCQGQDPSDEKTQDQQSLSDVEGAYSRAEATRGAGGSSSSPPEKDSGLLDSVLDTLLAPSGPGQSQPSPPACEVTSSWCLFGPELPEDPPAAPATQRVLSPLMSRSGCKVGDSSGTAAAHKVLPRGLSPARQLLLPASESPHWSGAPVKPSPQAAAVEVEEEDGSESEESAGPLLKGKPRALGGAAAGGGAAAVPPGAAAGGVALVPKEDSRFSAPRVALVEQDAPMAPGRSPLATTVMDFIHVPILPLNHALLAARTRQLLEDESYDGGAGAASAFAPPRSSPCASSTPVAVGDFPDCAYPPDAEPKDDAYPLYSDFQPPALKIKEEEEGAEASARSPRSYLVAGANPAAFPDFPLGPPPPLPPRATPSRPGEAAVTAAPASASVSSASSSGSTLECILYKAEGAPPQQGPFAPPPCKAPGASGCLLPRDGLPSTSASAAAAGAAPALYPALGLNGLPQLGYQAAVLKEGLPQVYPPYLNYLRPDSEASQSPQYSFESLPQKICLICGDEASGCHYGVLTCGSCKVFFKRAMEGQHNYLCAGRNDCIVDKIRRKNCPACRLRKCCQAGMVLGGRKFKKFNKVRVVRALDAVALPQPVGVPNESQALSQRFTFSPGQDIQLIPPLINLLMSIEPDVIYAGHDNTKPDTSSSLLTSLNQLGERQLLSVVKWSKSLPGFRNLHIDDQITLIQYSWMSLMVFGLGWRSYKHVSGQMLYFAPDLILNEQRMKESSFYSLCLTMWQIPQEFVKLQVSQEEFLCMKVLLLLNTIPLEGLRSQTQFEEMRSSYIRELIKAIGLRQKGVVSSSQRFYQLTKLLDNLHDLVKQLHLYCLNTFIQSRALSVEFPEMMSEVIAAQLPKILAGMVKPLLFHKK
Chain of UniProt P34981 (P34981 whole entry, looked up): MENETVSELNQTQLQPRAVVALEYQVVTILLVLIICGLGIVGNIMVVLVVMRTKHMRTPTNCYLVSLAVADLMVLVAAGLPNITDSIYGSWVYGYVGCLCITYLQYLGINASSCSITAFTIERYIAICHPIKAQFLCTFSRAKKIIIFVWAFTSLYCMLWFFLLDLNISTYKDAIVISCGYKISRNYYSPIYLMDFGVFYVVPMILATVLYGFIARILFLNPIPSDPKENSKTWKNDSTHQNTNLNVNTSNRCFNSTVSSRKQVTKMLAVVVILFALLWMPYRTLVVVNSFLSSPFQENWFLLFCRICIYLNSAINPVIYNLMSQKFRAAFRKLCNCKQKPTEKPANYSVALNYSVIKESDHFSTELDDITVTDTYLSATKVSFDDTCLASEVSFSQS

SMILES: O=C(NO)c1ccccc1
- Potency [1, 11]: inconclusive: 18.4 µM [activator, full curve]
- Potency [2, 12]: inconclusive: 32.7 µM
- Potency [3]: inconclusive: 29.2 µM [cytotoxic, partial curve, poor fit]
- Potency [4]: inconclusive: 6.53 µM [cytotoxic, partial curve, poor fit]
- Potency [5]: inconclusive: 0.739 µM [cytotoxic, partial curve, poor fit]

SMILES: Cc1cc(OCCOCC[N+](C)(C)Cc2ccccc2)ccc1C(C)(C)CC(C)(C)C
- Potency [1, 11]: inconclusive: 76.5 µM [cytotoxic]
- Potency [2, 12]: inconclusive: 68.2 µM
- activity change, negative = inhibition [2, 12]: inconclusive: -50.8% [at 42.5 µM]
- Potency [3]: active: 54.2 µM and active: 26.6 µM
- Potency [4]: active: 27.1 µM and active: 13.3 µM
- Potency [5]: active: 43.4 µM and active: 23.9 µM
- Potency [6]: active: 43.4 µM and active: 23.9 µM
- Potency [7]: inconclusive: 54.6 µM [falling, single point]
- Potency [8]: inconclusive: 23.8 µM [inhibitor, partial curve, poor fit]
- Potency [9]: inconclusive: 33.5 µM [cytotoxic, single point]

SMILES: CC(C)(c1ccccc1)c1ccc(Nc2ccc(C(C)(C)c3ccccc3)cc2)cc1
- Potency [1, 11]: inconclusive: 43.2 µM [falling, partial curve]
- activation [1, 11]: inconclusive: -4.05%

SMILES: Cc1ccc(-c2cc(C(F)(F)F)nn2-c2ccc(S(N)(=O)=O)cc2)cc1
- Potency [1, 11]: inconclusive: 68.3 µM [cytotoxic, single point] and inconclusive: 68.6 µM [cytotoxic]
- Potency [2, 12]: inconclusive: 68.3 µM [falling, single point] and inconclusive: 68.6 µM [falling, single point]
- activity change, negative = inhibition [2, 12]: inconclusive: -44.2% [at 42.5 µM]
- Potency [3]: inconclusive: 38.4 µM [cytotoxic, partial curve, poor fit] and inconclusive: 77 µM [cytotoxic, single point]
- Potency [4]: active: 76.6 µM and inconclusive: 68.6 µM [cytotoxic, single point]
- Potency [5]: inconclusive: 54.7 µM [cytotoxic, partial curve, poor fit]
- Potency [6]: inconclusive: 54.7 µM [cytotoxic]
- Potency [8]: inconclusive: 33.7 µM [inhibitor]
- Potency [10, 13]: inconclusive: 43.5 µM
- activity, negative = inhibition [10, 13]: inconclusive: -1.61%
- Potency [9]: inconclusive: 68.6 µM [cytotoxic, single point]

SMILES: O=C1NC(=O)c2cc([N+](=O)[O-])ccc21
- Potency [1, 11]: inactive

SMILES: CC(=O)OC/C=C(C)/C=C/C=C(C)/C=C/C1=C(C)CCCC1(C)C
- activation [1, 11]: inconclusive: 0.523% and inconclusive: -0.3%
- activation ([1]; at 42.5 µM (top of the series)): inactive: 0.541%
- Potency [3]: inconclusive: 3.35 µM [cytotoxic, single point]
- Potency [7]: inconclusive: 60.2 µM [rising, partial curve, poor fit]

SMILES: CCOC(=O)N1CCC(=C2c3ccc(Cl)cc3CCc3cccnc32)CC1
- Potency [1, 11]: inconclusive: 33.5 µM [cytotoxic, single point]
- activation [1, 11]: inconclusive: -16.5%
- Potency [2, 12]: active: 13.7 µM and inconclusive: 11.9 µM
- Potency [3]: active: 61.1 µM and inconclusive: 33.5 µM [cytotoxic, single point]
- Potency [4]: inconclusive: 68.6 µM [cytotoxic, single point] and inconclusive: 33.5 µM [cytotoxic, single point]
- activity, negative = inhibition ([10]; at 35.3 µM (top of the series)): inconclusive: -22.3%
- activity, negative = inhibition ([10]; at 76.8 µM (top of the series)): inconclusive: -23.3%

SMILES: CCOc1ccc([N+](=O)[O-])cc1
- Potency [1, 11]: inconclusive: 62 µM [falling, single point]
- Potency [2, 12]: active: 27.7 µM
- Potency [3]: inconclusive: 69.6 µM [single point]
- Potency [4]: inconclusive: 62 µM

SMILES: CCCCC(CC)CN=C(N)NC(N)=NCCCCCCN=C(N)NC(N)=NCC(CC)CCCC (centres undefined)
- Potency [1, 11]: inconclusive: 23.7 µM [cytotoxic, partial curve]
- Potency [2, 12]: inconclusive: 29.8 µM [falling, partial curve]
- Potency [3]: inconclusive: 33.5 µM [cytotoxic, single point]
- Potency [4]: inconclusive: 33.5 µM [cytotoxic, single point]
- Potency [5]: active: 19 µM
- Potency [6]: active: 23.9 µM
- Potency [7]: inconclusive: 26.8 µM

SMILES: Nc1nc(N)c2nc(-c3ccccc3)c(N)nc2n1
- Potency [1, 11]: inconclusive: 55.1 µM [activator, partial curve] and inconclusive: 9.69 µM [activator, partial curve]
- activation [1, 11]: inconclusive: 15.3% [at 42.5 µM]
- activity change, negative = inhibition ([2]; at 42.5 µM (top of the series)): inconclusive: 9.39%
- activity change, negative = inhibition ([2]; at 92.4 µM (top of the series)): inconclusive: -4.77% and inconclusive: 8.53%
- Potency [7]: active: 22.1 µM and inconclusive: 38.9 µM [fluorescent, partial curve] and active: 19 µM
- activity, negative = inhibition ([10]; at 35.3 µM (top of the series)): inconclusive: -1.39%
- activity, negative = inhibition ([10]; at 76.8 µM (top of the series)): inconclusive: 0.561% and inconclusive: -8.35%
- Potency [9]: inconclusive: 44.7 µM [cytotoxic, partial curve] and inconclusive: 68.6 µM [cytotoxic, single point]
